Measurements reported in PubChem BioAssay AID1963970 (Molecular Pharmacology Branch, DTP, NCI, 2024).
Some entries of the source have several records that differ or are many. The list is limited to them. An entry can have further records. Values given together are repeated measurements across runs, samples, wells, individuals or studies.

System: 931267-113-T-J1-PDC multicell spheroid viability
Assay: Anticancer human tumor 931267-113-T-J1-PDC patient-derived colon adenocarcinoma cell line growth inhibition [PI3K]
Conditions: for viability, T/C: stronger effect = lower value; for IC50: compound alone
Excerpt: Combinatorial screen of targeted agents with the PI3K inhibitors inavolisib, alpelisib, duvelisib, and copanlisib in multi-cell type tumor spheroids
A high-throughput screen of multi-cell type tumor spheroids was designed to identify active combinations of targeted small molecules and PI3K pathway inhibitors. Complex spheroids include a stromal component modeled by human endothelial cells (HUVEC) and fibroblasts modeled by human mesenchymal stem cells (MSCs). The concentration ranges selected for each drug and investigational agent were based upon clinically achievable concentrations if the clinical Cmax of the agent was known.
Compounds. The drugs and investigational agents: inavolisib (NSC800729), alpelisib (NSC765974), duvelisib (NSC772469), copanlisib (NSC816437), ipatasertib (NSC767898), afuresertib (NSC778305), talazoparib (NSC767125), sapanisertib (NSC764658), selumetinib (NSC741078), tovorafenib (DAY101, NSC766906), vemurafenib (NSC761431), ravoxertinib (NSC781343), sotorasib (NSC818433), MRTX1133 (NSC 836407), abemaciclib (NSC 768073), palbociclib (NSC758247), venetoclax (NSC 766270), SY5609 (NSC837396), enzalutamide (NSC755605), and darolutamide (NSC825331), were obtained from the National Cancer Institute (NCI) Developmental Therapeutics Program Chemical Repository. The FDA-approved anticancer drug set is available from the NCI Developmental Therapeutics Program. […] The stock solutions were prepared in dimethyl sulfoxide (DMSO, Sigma-Aldrich, St. Louis, MO, cat. D2650) at 800-fold the tested concentration and stored at -70 degrees C prior to their use. All drugs and investigational agents were tested over a range starting from a high concentration at or near the clinical Cmax and decreasing in half-log increments. If the clinical Cmax for an agent had not been determined, the highest concentration tested was 10 microM.
Cell Culture. All cells were maintained in an incubator at 37 degrees C and 5% CO2 with 95% humidity. The PDC lines were cultured according to standard operating procedures established by the NCI PDMR (https://pdmr.cancer.gov/sops/default.htm). All PDCs were thawed and cultured in Matrigel-coated flasks prepared with a working solution of 1X Ham's F-12 nutrient mix, without supplementation (Invitrogen, Waltham, MA, cat. 11765054), 100 U/mL penicillin-streptomycin (Invitrogen, cat. 15140122), and 2.5% Matrigel (Corning Inc., Corning, NY, cat. 354248) for the first three passages. The 354836-022-R-J1-PDC, 475296-252-R-J1-PDC, and 997726-040-R-J2-PDC lines were cultured in 6A media, which includes advanced DMEM/F-12 (Thermo Fisher Scientific, cat. 12634028), 10 mM HEPES (Thermo Fisher Scientific, cat. 15630080), 1X GlutaMAX supplement (Thermo Fisher Scientific, cat. 35050061), 0.1 mg/mL primocin (InvivoGen, San Diego, CA, cat. ant-pm-2), 10% defined fetal bovine serum, heat inactivated (HyClone Laboratories Inc., Logan, UT, cat. SH30070.03HI), 50% L-WRN conditioned media (ATCC, cat. CRL-3276), 1.25 mM N-Acetyl-L-cysteine (Sigma-Aldrich, cat. A9165), 10 mM nicotinamide (Sigma-Aldrich, cat. N0636), 1X B-27 supplement (Thermo Fisher Scientific, cat. 17504044), 1X N-2 supplement (Thermo Fisher Scientific, cat. 17502048), and 10 microM Y-27632 dihydrochloride (Tocris Bioscience, Bristol, United Kingdom, cat. 1254). The 624824-186-R-J2-PDC line was cultured in 6C/Colon 1B media, which includes all 6A media components plus 50 ng/mL human EGF recombinant protein (Thermo Fisher Scientific, cat. PHG0311). […]
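Further: viability read 7 days after compound addition.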

| Structure (SMILES) | viability, T/C (compound alone 3.16 µM) | IC50 | also measured |
| --- | --- | --- | --- |
| CC1(C)CCC(Nc2ncc(C(F)(F)F)c(-c3c[nH]c4c(P(C)(C)=O)c(C#N)ccc34)n2)CN1 (stereo unspecified) | 75.1, 72.3, 97.5, 83.6% |  |  |
| CCCS(=O)(=O)Nc1ccc(F)c(C(=O)c2c[nH]c3ncc(-c4ccc(Cl)cc4)cc23)c1F | 106, 133, 121, 131% |  |  |
| C=CC(=O)N1CCN(c2nc(=O)n(-c3c(C)ccnc3C(C)C)c3nc(-c4c(O)cccc4F)c(F)cc23)C(C)C1 (stereo unspecified) |  |  | viability, T/C (compound alone 0.1 µM): 83.6, 100, 111, 97.7% |
| CC1(C)CCC(CN2CCN(c3ccc(C(=O)NS(=O)(=O)c4ccc(NCC5CCOCC5)c([N+](=O)[O-])c4)c(Oc4cnc5[nH]ccc5c4)c3)CC2)=C(c2ccc(Cl)cc2)C1 |  | 6.11 µM, 6.16 µM, 6.96 µM, > 10 µM | viability, T/C (compound alone 10 µM): 14.7, 18.1, 25.4, 78.2% |
| Cn1nccc1Nc1nccc(-c2ccn(C(CO)c3ccc(Cl)c(F)c3)c(=O)c2)n1 (stereo unspecified) |  | 6.02 µM, 5.9 µM, > 10 µM, 5.97 µM |  |
